Reference: PMC12136788
The list shows a part of the results.

B1: chr5:23948154:23948155:-_ENSMUSG00000028959_ENSMUST00000030800|mus_mus|FALSE|FALSE (ssRNA)
RNA: GGGAGUUCUACAGUCCGACGAUCCAAGGGUGCCACCCCUGCUUCCCGAGCCAGGAUCCUCUCAAGGCAGGGCAUAAAUUGCUGCUCCAGGGGCAUGUAGUUCAACCUCCCAAAGGGCAGGACCAACUUCUGUACCACCUUGCUCAACAGAGGAUUGAGCAUCA
B2: chr4:3761713:3761714:-_ENSMUSG00000028234_ENSMUST00000103009|mus_hu|FALSE|FALSE (ssRNA)
RNA: GGGAGUUCUACAGUCCGACGAUCCUCAACUCCUGGCUCAAUACUGAUGGAAGUAAUCUGCUUAACAAUCUCAGAAGGACUGUGCAAGUCAAUGAGUCGCUUGUGAAUUCUCAUCUGGAAACGAUCCCACGUCUUAGAACCUUCCAACAGAGGAUUGAGCAUCA
B3: 83250160_83251529_1244_CDS_ENSMUSG00000031715_ENSMUST00000043359|mouse|control|control (ssRNA)
RNA: GGGAGUUCUACAGUCCGACGAUCCCAGUUGAAUUUUUUGAACACAGACUUCUCUUUAAUAAGCAUUUCAUAAGAUGUGACACACACAUCCCACUCUCCUGGUAAUAAAACAUCCCUGACAAAUGCAGCUCUUUGCUCUUUAUCCAACAGAGGAUUGAGCAUCA
B4: chr10:62544473:62544474:+_ENSG00000170312_ENST00000395284|hu_hu|motif|central (ssRNA)
RNA: GGGAGUUCUACAGUCCGACGAUCUGUAGUUUUGUGUCUACCCUUAUACACAACUCCAUAGGUACCUUCUCCAAUUUUCUCGGUUUUGGUAUAAUCUUCCAUAGUUAGUCAAUGGGUAUGGUAGAUCCCGGCUUAUUAUUCCGCCAACAGAGGAUUGAGCAUCA
B5: chr3:176767854:176767855:-_ENSG00000177565_ENST00000430069|hu_hu|hu_hu_hu_mus_False|78_88 (ssRNA)
RNA: GGGAGUUCUACAGUCCGACGAUCGACAUCCUUGUUACUGGGCACGUCUUGCCCUCCUUCUCGUAUACAGUGUCUAAGCACGAGCUGCGUAGGGCCACUCGUGCUGUUCUCACUGAGGUUCCAGAUUCUUGCCGUGGAGUCUCCCAACAGAGGAUUGAGCAUCA
B6: chr6:40197388:40197389:+_ENSMUSG00000057716_ENSMUST00000061740|mus_mus|mus_mus_mus_hu_False|18_38 (ssRNA)
RNA: GGGAGUUCUACAGUCCGACGAUCGAGACACUGGGGUGGAUUUAUUCCACCUCUGUUUGGGUGCUAGCCACUAAGACUGUUAUUUUGGGAUUCAUGGCCUUGAAGAUCAAGAGGGAAGGGACGAGAAUGGAAAGAGUCAAGAGUCAACAGAGGAUUGAGCAUCA
B7: chr10:121026873:121026874:-_ENSMUSG00000034667_ENSMUST00000039810|mus_mus|FALSE|FALSE (ssRNA)
RNA: GGGAGUUCUACAGUCCGACGAUCUUCUCUUAUAGAAUACACAUCGGCAUUGAAAAAUUUAAAGAAAUGUAAUGGCUAUCUAUGAAAGAUUACGUUUUGAUUGUUACCCCACAGCUCAUGUGUCUGCAUACACAGAACCAAACACAACAGAGGAUUGAGCAUCA
B8: 100453122_100453242_2085_CDS_ENSG00000111647_ENST00000279907|human|control|control (ssRNA)
RNA: GGGAGUUCUACAGUCCGACGAUCGGGGAAGCUGGUAUAUGUUUUACUAAAAAAAUCACAAUCUUUAAAGUCUUGAAACAAAGCUUCUAGGUCAGAAUGUCGACAGUUUGGACAGUGCCUUGUAUUUGUGGCAAUCAUUUCAGACAACAGAGGAUUGAGCAUCA
B9: chr4:76721835:76721836:+_ENSG00000138768_ENST00000264904|hu_mus|hu_hu_hu_mus_True|18_48 (ssRNA)
RNA: GGGAGUUCUACAGUCCGACGAUCGUUUGGCUGGGGUUUCUGAGACGCUCUGGAAUAUAACUCAUGUUUGCUAAUAAAUCCUAGUUUUCUAUGAAAUUUCUCUUUGCCAAUCCUCUUUCAAUCAGUUUGCUUUAGUUUCUCUUUCAACAGAGGAUUGAGCAUCA
B10: chrX:140365796:140365797:-_ENSMUSG00000031285_ENSMUST00000033642|mus_mus|mus_mus_mus_hu_False|48_78 (ssRNA)
RNA: GGGAGUUCUACAGUCCGACGAUCCUUCUCAUUACUCAGUGCCUGCAAGGUUCUGGUUCUGUAGAAGCUACAGUGGGCGCUGUGAGUGGGACUUGGAAACCCAUUCAUCCGGGAGCCUCGCAUGUUCCUGGAUGUCUUAUCUCUCAACAGAGGAUUGAGCAUCA
B11: chr14:31813938:31813939:-_ENSMUSG00000021917_ENSMUST00000162092|perfect_dup|FALSE|FALSE (ssRNA)
RNA: GGGAGUUCUACAGUCCGACGAUCAACUAUAUAGACAGUCCACCCGAACUGUUCAGCCACGUACCCGUAGAUAAAUCCAACUAUUGCAGAAAAAAGAAUAAUUCCCUGAAACAUCUGUUCAGCUAGCUUCUGGCCCUUGUAAUCCAACAGAGGAUUGAGCAUCA
B12: chr1:109605286:109605287:-_ENSG00000197780_ENST00000461096|hu_mus|hu_hu_hu_mus_True|58_88 (ssRNA)
RNA: GGGAGUUCUACAGUCCGACGAUCAAGUUUCAGAGUAACAUUCAGUAUACUUAAAUCAUGCAAUUAUCCUUAUUAUAAACUAAGGGCAAUAAUAAUUUAAUACCGUAAGUGAACUACACACAAAGCCUGAACCGCGAAAAUGGUCAACAGAGGAUUGAGCAUCA
B13: chr1:165697146:165697147:-_ENSG00000143183_ENST00000464650|hu_hu|FALSE|FALSE (ssRNA)
RNA: GGGAGUUCUACAGUCCGACGAUCUUGCUGGCUGCCAUUUUCACUCUAAUCAUACCCAAAAGGCUUAGAAAUAAUUCAAAACUAGAAAGAGGCCCAAGUAGUAAGGCUACCUAUGGCUCUUGCUACAAAACAGUUGCCAGUCUGCAACAGAGGAUUGAGCAUCA
B14: chr4:52453130:52453131:+_ENSMUSG00000028312_ENSMUST00000117280|mus_mus|FALSE|FALSE (ssRNA)
RNA: GGGAGUUCUACAGUCCGACGAUCUCCUCUGUGCAUAGGACUUGAAUCCUUCGAGAAUGAUUGAUUUAACAUACAUUUUCUAAACUGUCUUGGGUUAGUAAGCCUGUUAGGCAACAAGCUACAAGUCACGUCUGUACUCAGGCGCAACAGAGGAUUGAGCAUCA
B15: chr2:202488911:202488912:-_ENSG00000155755_ENST00000286196|hu_mus|hu_hu_hu_mus_False|1_28 (ssRNA)
RNA: GGGAGUUCUACAGUCCGACGAUCAUUGAAACAUUUUUCAUAAUCUCCAGUAGCAUUUCAGCAUUAUGUAACAAAAGCUCAAUUGUAAAUACAUGUAUCUUAUAAAAAUAAAAAUACAAACACGAGUGGGGAGCGCACAAAUACCAACAGAGGAUUGAGCAUCA
B16: chr2:24647629:24647630:-_ENSMUSG00000036893_ENSMUST00000134775|mus_hu|FALSE|FALSE (ssRNA)
RNA: GGGAGUUCUACAGUCCGACGAUCCCGGCACUUGGGGGAGCCGCAGCGGCAGCUGAAGAGCUUGCCUUUGAUGUCCCAGAAGCGCUCUCCAUAGUCAAACCCGAGCUGCUCGCCGGCCUCGAUCAGGCGGGUGCUGAAGAAGGCCAACAGAGGAUUGAGCAUCA
B17: chr13:110847046:110847047:-_ENSMUSG00000021700_ENSMUST00000167824|mus_mus|FALSE|FALSE (ssRNA)
RNA: GGGAGUUCUACAGUCCGACGAUCUGAGCCACAAAUGACAGGAACAUAGUGACAUUUCCACUACACACACACACACACACACACACACACACACACACACACACAAGCCACAGCAACUCUCAGUUGUCCACAAGGAAGCAAAAACAACAGAGGAUUGAGCAUCA
B18: 33497434_33497554_2936_3pUTR_ENSMUSG00000022811_ENSMUST00000165418|mouse|control|control (ssRNA)
RNA: GGGAGUUCUACAGUCCGACGAUCUUCUUAUCAGCUUGCUAUGAACGCACUGCUCUUAGAACUGUACAGCACUCCAUUUUACAGAGCAACCCCACUCUUGAGUAAUCUGUUCUAAAGUGCCAGUAUUAUUUACACAUUUUUUUUCAACAGAGGAUUGAGCAUCA
B19: 70925867_70925987_1684_CDS_ENSMUSG00000019558_ENSMUST00000114465|mouse|control|control (ssRNA)
RNA: GGGAGUUCUACAGUCCGACGAUCGAGACAGCCCAGGAGGUGGAGGGGUACACAUAGCAUAGAAGAGAGUGCAAAGGCCCAGCCCAUAGCUUCACCCCACCAUGGGUACACGUAGGUGUUGUUGUAGACCAGUGGCUCGUAGUACAACAGAGGAUUGAGCAUCA
B20: 126983161_126983534_11633_CDS_ENSMUSG00000040249_ENSMUST00000049149|mouse|control|control (ssRNA)
RNA: GGGAGUUCUACAGUCCGACGAUCGUCUUUGCAGUGGGGGUUCUGGGCCGUGGGGGGCUCACAGUCCUCCUCGUCAGUCCCAUCUCCACAGUUGUCCACGCCAUCACACUGGCGCCCAAUCCACAGGCAGACUCGGUCAUUCUUCAACAGAGGAUUGAGCAUCA
B21: 100153759_100153879_149_5pUTR_ENSG00000125304_ENST00000376387|human|control|control (ssRNA)
RNA: GGGAGUUCUACAGUCCGACGAUCCCGGCAGCCUCGCGCUCAUGAUAGUUGUUUCGGGGAAAGGGCAAUCAAACCUAGGGGGUCAAGAGGGAAGGAGGGGUGGGGAGUCUCGGAGACGACUACAAGGCCGCCAGAGAUAAAGGACAACAGAGGAUUGAGCAUCA
B22: chrX:140292434:140292435:-_ENSMUSG00000031285_ENSMUST00000033642|mus_mus|FALSE|FALSE (ssRNA)
RNA: GGGAGUUCUACAGUCCGACGAUCAAAGACCUAAACAUUCAUGAGCUGUAAGGACAGUGCUUGAAAAGAUCUACUGAGACUAAAACAGGAAAAAAAAAAAGAAAGGGUCAGAAUCAGGUUGUUUUCUACCAACCUACUUGUGACCAACAGAGGAUUGAGCAUCA

These binders were tested against T1, UNK ZnF1-3 (human, UniProt Q9C0B0 31-174) (assay: nsRBNS (natural sequence RNA bind-n-seq); RBNS binding buffer (assumed for nsRBNS): 25 mM Tris pH 7.5, 150 mM KCl, 3 mM MgCl2, 0.01% Triton X-100, 500 ug/ml BSA, 20 U/ml SUPERase-In, 4 C; UNK is unkempt and MSI1 is Musashi-1; names of the RNAs are library labels; protein concentration not given here; high values mean tight binding).
T1 sequence: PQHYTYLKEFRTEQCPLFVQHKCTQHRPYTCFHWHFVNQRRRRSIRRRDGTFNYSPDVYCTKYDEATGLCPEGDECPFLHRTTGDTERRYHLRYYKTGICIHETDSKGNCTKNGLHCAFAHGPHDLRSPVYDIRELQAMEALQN
Work on B1 yielded a binding signal of 1.02 enrichment R.
B2 was tested, and the binding signal was 1.48 enrichment R.
B3 gave a binding signal of 1.09 enrichment R.
B4 showed a binding signal of 0.303 enrichment R.
With B5 the binding signal was 0.338 enrichment R.
B6 gave a binding signal of 1.51 enrichment R.
Work on B7 yielded a binding signal of 1.4 enrichment R.
B8 was tested, and the binding signal was 1.02 enrichment R.
B9 gave a binding signal of 0.478 enrichment R.
With B10 the binding signal was 0.406 enrichment R.
Work on B11 yielded a binding signal of 1.36 enrichment R.
Binder B12 has a binding signal of 0.704 enrichment R.
In the case of B13, the binding signal is reported as 1.19 enrichment R.
B14 gave a binding signal of 0.61 enrichment R.
B15 showed a binding signal of 1.7 enrichment R.
For B16, the binding signal was 0.952 enrichment R.
B17 showed a binding signal of 1.52 enrichment R.
B18 was tested, and the binding signal was 0.536 enrichment R.
With B19 the binding signal was 1.49 enrichment R.
B20 gave a binding signal of 1.02 enrichment R.
B21 showed a binding signal of 2.22 enrichment R.
B22 showed a binding signal of 1.52 enrichment R.
